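Grown in 96-well plates, cells were treated for 48 hours with each compound at five concentrations. Insufficient inhibition: endpoint recorded as highest concentration tested. GI50 marks 50% less growth.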 The source made the active and inactive calls. Rule as the data show it: active = GI50 up to about 1.1 µM and inactive = higher.
Test system: NCI-H322M
Test: NCI-60 cell line screen, 48 h

Question: C=C(CC)C[C@@H]1C[C@]2(C(=O)OC)c3[nH]c4ccccc4c3CCN2C1=O was tested. Which GI50 did it give?
Answer: inactive: 22.7 µM

Question: Which GI50 does the source give for CCCCCCCCCCCCCCCC(=O)OC1C(O)C(CO)OC(OC)C1NC(=O)N(CCCl)N=O (configuration not stated) here?
Answer: inactive: 15.6 µM

Question: Which GI50 does the source give for O=[PH](O)c1ccccn1 here?
Answer: inactive: > 100 µM

Question: CC([C@H]1CCC2C3CCC4CC5(CC[C@]4(C)C3CC[C@@]21C)c1ccccc1C(=O)N5C)N(C)C (some centres not stated) was tested. Which GI50 did it give?
Answer: inactive: 22.1 µM

Question: COCC(O)CN1C(N)=NC(O)C1O (configuration not stated) was tested. Which GI50 did it give?
Answer: inactive: > 100 µM

Question: With [N-]=[N+]=Nc1ccc(CCN2CCN(c3cccc(C(F)(F)F)c3)CC2)cc1I as the compound, how does the GI50 read?
Answer: inactive: 87.9 µM

Question: Which GI50 does the source give for COc1cc(/C=C(\C)[N+](=O)[O-])cc(OC)c1 here?
Answer: inactive: 17.7 µM

Question: Which GI50 does the source give for Cc1c2c(n3c(nc4ccccc43)c1C#N)N(c1ccc(F)cc1)CC2 here?
Answer: inactive: > 100 µM

Question: How did the GI50 turn out when CN1C(=O)n2c(nc3ccccc32)C(N=[N+]=[N-])(N=[N+]=[N-])C1=O (configuration not stated) was run?
Answer: inactive: > 100 µM

Question: Which GI50 does the source give for CC(=O)NC1C(OCc2ccccc2)OC(COC(=O)CCCCCCCCCCNC(=O)CCNc2ccc([N+](=O)[O-])c3[nH]c4ccc(O)cc4c(=O)c23)C(O)C1OC(C)C(=O)N[C@H](C(=O)N[C@H](CCC(=O)O)C(N)=O)C(C)C (some centres not stated) here?
Answer: inactive: > 100 µM

Question: With COC(=O)C1(Cc2ccc3c(c2)CCC3)Cc2cc3c(cc2C1)CCC3 as the compound, how does the GI50 read?
Answer: inactive: > 100 µM

Question: Which GI50 does the source give for CCOC(=O)NC(=O)c1cn(-c2ccc(CCOC(=O)NCCCCCCNC(=O)OCCc3ccc(-n4c(=O)[nH]cc(C(=O)NC(=O)OCC)c4=O)cc3)cc2)c(=O)[nH]c1=O here?
Answer: inactive: > 100 µM

Question: How did the GI50 turn out when COc1cccc(OC)c1NC(=O)C(=O)Nn1c(NNC(=O)c2ccncc2)nc2ccccc2c1=O was run?
Answer: inactive: > 100 µM

Question: For CCc1c(C)c(C#N)c(=S)n(C2OC(COC(C)=O)C(OC(C)=O)C(OC(C)=O)C2OC(C)=O)c1-c1ccccc1 (configuration not stated), which GI50 is on record?
Answer: inactive: > 10 µM

Question: Which GI50 does the source give for NC(=S)Nc1nc(=S)[nH]c2c1SC1=N/C(=C\c3ccco3)C(=O)N12 here?
Answer: inactive: > 100 µM

Question: Which GI50 does the source give for COC(=O)C1(NC(=O)C(CC(=O)OCc2ccccc2)NC(=O)OCc2ccccc2)CCCCCCC1 (configuration not stated) here?
Answer: inactive: > 100 µM

Question: CCOC(=O)C(NC(=O)c1ccccc1)(Nc1ccc(S(=O)(=O)Nc2ncccn2)cc1)C(F)(F)F (configuration not stated) was tested. Which GI50 did it give?
Answer: inactive: > 100 µM

Question: For CCCC1(CC(=O)O)OCCc2c1[nH]c1ccccc21 (configuration not stated) [PRODOLIC ACID], which GI50 is on record?
Answer: inactive: > 100 µM

Question: How did the GI50 turn out when S=c1nc2[nH]c3ccc(Br)cc3c2n[nH]1 was run?
Answer: inactive: 84.5 µM

Question: Which GI50 does the source give for COC(=O)c1c(CC(=O)OC(C)C)cc2n(c1=O)Cc1c-2nc2ccccc2c1OC here?
Answer: inactive: > 100 µM

Question: c1cc(CSSCc2ccncc2)ccn1 was tested. Which GI50 did it give?
Answer: inactive: 57.9 µM

Question: With O=C1[C@H]2ON(c3ccccc3)C(c3ccccc3Cl)[C@H]2C(=O)N1c1ccc(Cc2ccc(N3C(=O)[C@@H]4ON(c5ccccc5)C(c5ccccc5Cl)[C@@H]4C3=O)cc2)cc1 (some centres not stated) as the compound, how does the GI50 read?
Answer: inactive: > 100 µM

Question: With COC(=O)C1CCc2c1c(=O)n1c([nH]c3ccccc31)c2C#N (configuration not stated) as the compound, how does the GI50 read?
Answer: inactive: > 100 µM

Question: Which GI50 does the source give for COc1cc(/C=C2/SC(c3ccccc3)N(c3ccc(NC(C)=O)cc3)C2=O)cc(OC)c1OC (configuration not stated) here?
Answer: inactive: > 100 µM

Question: Which GI50 does the source give for Sc1nnc(CCCCCCCCc2nnc(S)o2)o1 here?
Answer: inactive: > 100 µM

Question: For O=C1CS(=O)(=O)C(c2cccc(Oc3ccccc3)c2)N1c1cccc(Cl)c1Cl (configuration not stated), which GI50 is on record?
Answer: inactive: 75.2 µM

Question: With CCCCc1ccc(N2C(=O)c3cc(C)cnc3S2(=O)=O)cc1 as the compound, how does the GI50 read?
Answer: inactive: > 100 µM

Question: Which GI50 does the source give for c1coc(C2=Nc3cccc4cccc(c34)N2)c1 here?
Answer: inactive: 94.2 µM

Question: Clc1cccc(Cl)c1C1SCC2=Nc3ccccc3CN21 (configuration not stated) was tested. Which GI50 did it give?
Answer: inactive: 19.4 µM

Question: With COc1cc2c(cc1OC)C(Cl)C(c1ccc(Br)cc1)=C2Cl (configuration not stated) as the compound, how does the GI50 read?
Answer: inactive: 15.6 µM

Question: O=C1CCCN1CCC/N=c1/cc2n(-c3ccc(Cl)cc3)c3ccccc3nc-2cc1Nc1ccc(Cl)cc1 was tested. Which GI50 did it give?
Answer: inactive: 20.2 µM

Question: Which GI50 does the source give for CC1C(=O)N(C)C2(CO)C(=O)O[C@H](C)C12O (some centres not stated) here?
Answer: inactive: > 100 µM

Question: Which GI50 does the source give for C=CCOC(=O)N1c2ccc(O)cc2[C@@]23O[C@@]24[C@@H]1C#C/C=C\C#C[C@]3(O)C(=O)C[C@@H]4C here?
Answer: inactive: > 100 µM

Question: With O=C(O)CCCCCCCCC(=O)O [SEBACIC ACID] as the compound, how does the GI50 read?
Answer: inactive: > 500 µM

Question: With S=C1Cc2c([nH]c3ccccc23)-c2ccccc2N1 as the compound, how does the GI50 read?
Answer: inactive: 29.2 µM

Question: How did the GI50 turn out when COc1ccc2c(c1)c1c3n2CCNN=C3CCC1 was run?
Answer: inactive: > 87.9 µM

Question: Which GI50 does the source give for CC(C)N(C(=O)C12C3C4C1C1C2C3C41C(=O)N(C(C)C)C(C)C)C(C)C (configuration not stated) here?
Answer: inactive: > 50 µM

Question: c1ccc([P+](CCC[P+](c2ccccc2)(c2ccccc2)c2ccccc2)(c2ccccc2)c2ccccc2)cc1 was tested. Which GI50 did it give?
Answer: inactive: 98.4 µM

Question: How did the GI50 turn out when O=C(CC1C=Cc2ccccc2N1C(=O)c1ccccc1)c1ccccc1 (configuration not stated) was run?
Answer: inactive: 19 µM

Question: For Cc1ccc(C2=Nc3ccccc3[S+]([O-])C(c3ccc4c(c3)OCO4)C2)cc1 (configuration not stated), which GI50 is on record?
Answer: inactive: 34.8 µM

Question: How did the GI50 turn out when O=c1[nH]cnc2cccc(Cl)c12 was run?
Answer: inactive: > 100 µM

Question: Which GI50 does the source give for OCCCNc1ccnc2cc(Cl)ccc12 here?
Answer: inactive: > 100 µM

Question: Which GI50 does the source give for CC(=O)Oc1ccc2c(c1)CC[C@@H]1C2[C@@H](O[N+](=O)[O-])C[C@@]2(C)C1CC[C@@H]2O (some centres not stated) here?
Answer: inactive: 41 µM

Question: How did the GI50 turn out when CCOC(=O)/C(C[C@H]1OC(C)(C)O[C@@H]1[C@H]1COC(C)(C)O1)=N/O was run?
Answer: inactive: > 100 µM

Question: For CN1CCN(c2ccc3c(c2)NCC(=O)N3)CC1, which GI50 is on record?
Answer: inactive: > 100 µM

Question: Which GI50 does the source give for Nc1cc(O)c2cc(/N=N/c3ccc(/N=N/c4ccc(/N=N/c5ccc6cc(S(=O)(=O)O)cc(S(=O)(=O)O)c6c5)c5ccccc45)c4cc(S(=O)(=O)O)ccc34)c(S(=O)(=O)O)cc2c1 here?
Answer: inactive: > 100 µM

Question: How did the GI50 turn out when CCCC(CCN)(CCN)[N+](=O)[O-] was run?
Answer: inactive: > 100 µM

Question: Which GI50 does the source give for CC(=O)OCC1OC(n2ncc(=O)[nH]c2=O)C(OC(C)=O)C1OC(C)=O (configuration not stated) here?
Answer: inactive: 62.8 µM

Question: Which GI50 does the source give for COC(=O)CCc1ccc(CCC(=O)OC)cc1 here?
Answer: inactive: > 100 µM

Question: Which GI50 does the source give for CCOC(=N)CC(=O)c1ccccc1 here?
Answer: inactive: > 100 µM

Question: With Cc1ccnc2[nH]c3ccccc3c(=O)c12 as the compound, how does the GI50 read?
Answer: inactive: 40.3 µM

Question: With CCOC(=O)c1cc(C2CCN(Cc3ccccc3)C2=O)c(C(=O)/C=C(/C)N)[nH]1 (configuration not stated) as the compound, how does the GI50 read?
Answer: inactive: 52.2 µM

Question: Which GI50 does the source give for Cc1ccc(F)c2[nH]c(-c3ccccc3)cc(=O)c12 here?
Answer: inactive: 4.9 µM

Question: For CCN1CCC(O)(c2ccc(Oc3ccc(F)cc3)cc2)C(C(=O)c2ccc(Oc3ccc(F)cc3)cc2)C1 (configuration not stated), which GI50 is on record?
Answer: inactive: 16.1 µM

Question: With COC(=O)NC1(NC(=O)OC)NC(=O)c2ccccc2N1 as the compound, how does the GI50 read?
Answer: inactive: > 100 µM

Question: Which GI50 does the source give for COc1ccc(C2=Nc3ccccc3N=C(SC)C2)cc1 here?
Answer: inactive: > 100 µM

Question: For COc1cc(C(C)c2cc3c(cc2OCCCCCOc2cc4c(cc2C(C)c2cc(OC)c(OC)c(OC)c2)OCO4)OCO3)cc(OC)c1OC (configuration not stated), which GI50 is on record?
Answer: inactive: > 100 µM

Question: BC(=O)NC(CC(C)C)C(=O)NCC(=O)NC1c2ccsc2C(=O)C1O.CN(C)C (configuration not stated) was tested. Which GI50 did it give?
Answer: inactive: > 100 µM

Question: How did the GI50 turn out when Clc1cc(Cl)cc(C2SCc3nc4ccccc4n32)c1 (configuration not stated) was run?
Answer: inactive: 19.4 µM

Question: COc1cc(-c2coc3c(OC)c(OC4OC(CO)C(O)C(O)C4O)c(OC)cc3c2=O)cc(OC)c1C (configuration not stated) was tested. Which GI50 did it give?
Answer: inactive: 11.7 µM

Question: Which GI50 does the source give for COc1ccc(-c2csc(Cc3nc4ccccc4c(=O)n3-c3ccc(Cl)cc3)n2)cc1 here?
Answer: inactive: 20.5 µM

Question: For CC(=O)OC1C(O)C(C)OC(OC2C(OC(=O)C3CCC4C(C3)OC3(CC(OC(=O)/C=C/c5ccccc5)C(C)CO3)C43CO3)OC(C)C(O)C2OC(C)=O)C1O (configuration not stated), which GI50 is on record?
Answer: active: 0.0157 µM

From ChEMBL document CHEMBL1201862, “PubChem BioAssay data set” (2004)
